The text below walks through data of the supplement of paper PMC12230231.

± gives the standard deviation of the averaged measurements. Restriction of a single-cycle SIVsab GFP reporter by TRIM5α v1-loop variants in CRFK cells. Human variants: read share among cells still uninfected after two challenges over input, higher = gained restriction. Rhesus variants: share among infected cells over input, higher = lost restriction. Reporter dose not given per row. No active / inactive call per row; the paper calls a change when both replicates lie above its controls (mean + 2 SD of stop or wild-type variants, or the top frameshift score). Residues outside the varied loop are taken from Swiss-Prot. The paper reads the human single-substitution scores as noise; they and the rhesus combinations repeat poorly (rank correlation 0.3 to 0.4), indel scores repeat only for the top variants, rhesus substitutions well (0.9).

This data set has as its system SIVsab (simian immunodeficiency virus of sabaeus monkeys), single-cycle GFP reporter, in CRFK cells. The data set is described as follows: enrichment among infected cells over input (fold); higher = weaker restriction. To be noted: library: human / rhesus combinations. As for the experimental part:
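Pools of CRFK cells expressing variants of the TRIM5α v1 loop were challenged with the single-cycle reporter, sorted by GFP and sequenced; mean of two replicates.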
With “MASGILLNVKEEVTCPICLELLTEPLSLHCGHSFCQACITANHKKSMLYKEGERSCPVCRISYQPENIQPNRHVANIVEKLREVKLSPEEGQKVDHCARHGEKLLLFCQEDSKVICWLCERSQEHRGHHTFLMEEVAQEYHVKLQTALEMLRQKQQEAEKLEADIREEKASWKIQIDYDKTNVSADFEQLREILDWEESNELQNLEKEEEDILKSLTKSETEMVQQTQYMRELISELEHRLQGSMMDLLQGVDGIIKRIENMTLKKPKTFHKNQRRVFRAPDLKGMLDMFRELTDARRYWVDVTLAPNNISHAVIAEDKRQVSSRNPQIMYGARGTLFTFQSFVNFNYCTGVLGSQSITSGKHYWEVDVSKKSAWILGVCAGFQSDAMYNIEQNENYQPKYGYWVIGLQEGVKYSVFQDGSSHTPFAPFIVPLSVIICPDRVGVFVDYEACTVSFFNITNHGFLIYKFSQCSFSKPVFPYLNPRKCTVPMTLCSPSS [rhesus TRIM5α, 332-344 = GARGTLFTFQSFV]”, the enrichment came to 1.57 ± 0.29. On to “MASGILLNVKEEVTCPICLELLTEPLSLHCGHSFCQACITANHKKSMLYKEGERSCPVCRISYQPENIQPNRHVANIVEKLREVKLSPEEGQKVDHCARHGEKLLLFCQEDSKVICWLCERSQEHRGHHTFLMEEVAQEYHVKLQTALEMLRQKQQEAEKLEADIREEKASWKIQIDYDKTNVSADFEQLREILDWEESNELQNLEKEEEDILKSLTKSETEMVQQTQYMRELISELEHRLQGSMMDLLQGVDGIIKRIENMTLKKPKTFHKNQRRVFRAPDLKGMLDMFRELTDARRYWVDVTLAPNNISHAVIAEDKRQVSSRNPQIMYGARGTLFTFQSLTNFNYCTGVLGSQSITSGKHYWEVDVSKKSAWILGVCAGFQSDAMYNIEQNENYQPKYGYWVIGLQEGVKYSVFQDGSSHTPFAPFIVPLSVIICPDRVGVFVDYEACTVSFFNITNHGFLIYKFSQCSFSKPVFPYLNPRKCTVPMTLCSPSS [rhesus TRIM5α, 332-344 = GARGTLFTFQSLT]”, for which the enrichment is 0.779 ± 0.18.

As for “MASGILLNVKEEVTCPICLELLTEPLSLHCGHSFCQACITANHKKSMLYKEGERSCPVCRISYQPENIQPNRHVANIVEKLREVKLSPEEGQKVDHCARHGEKLLLFCQEDSKVICWLCERSQEHRGHHTFLMEEVAQEYHVKLQTALEMLRQKQQEAEKLEADIREEKASWKIQIDYDKTNVSADFEQLREILDWEESNELQNLEKEEEDILKSLTKSETEMVQQTQYMRELISELEHRLQGSMMDLLQGVDGIIKRIENMTLKKPKTFHKNQRRVFRAPDLKGMLDMFRELTDARRYWVDVTLAPNNISHAVIAEDKRQVSSRNPQIMYGARGTLFTFQSLVNFNYCTGVLGSQSITSGKHYWEVDVSKKSAWILGVCAGFQSDAMYNIEQNENYQPKYGYWVIGLQEGVKYSVFQDGSSHTPFAPFIVPLSVIICPDRVGVFVDYEACTVSFFNITNHGFLIYKFSQCSFSKPVFPYLNPRKCTVPMTLCSPSS [rhesus TRIM5α, 332-344 = GARGTLFTFQSLV]”, the enrichment is 1.04 ± 0.42. For the sequence “MASGILLNVKEEVTCPICLELLTEPLSLHCGHSFCQACITANHKKSMLYKEGERSCPVCRISYQPENIQPNRHVANIVEKLREVKLSPEEGQKVDHCARHGEKLLLFCQEDSKVICWLCERSQEHRGHHTFLMEEVAQEYHVKLQTALEMLRQKQQEAEKLEADIREEKASWKIQIDYDKTNVSADFEQLREILDWEESNELQNLEKEEEDILKSLTKSETEMVQQTQYMRELISELEHRLQGSMMDLLQGVDGIIKRIENMTLKKPKTFHKNQRRVFRAPDLKGMLDMFRELTDARRYWVDVTLAPNNISHAVIAEDKRQVSSRNPQIMYGARGTLFTFQTFTNFNYCTGVLGSQSITSGKHYWEVDVSKKSAWILGVCAGFQSDAMYNIEQNENYQPKYGYWVIGLQEGVKYSVFQDGSSHTPFAPFIVPLSVIICPDRVGVFVDYEACTVSFFNITNHGFLIYKFSQCSFSKPVFPYLNPRKCTVPMTLCSPSS [rhesus TRIM5α, 332-344 = GARGTLFTFQTFT]”, the enrichment was 1.01 ± 0.47. Turning to “MASGILLNVKEEVTCPICLELLTEPLSLHCGHSFCQACITANHKKSMLYKEGERSCPVCRISYQPENIQPNRHVANIVEKLREVKLSPEEGQKVDHCARHGEKLLLFCQEDSKVICWLCERSQEHRGHHTFLMEEVAQEYHVKLQTALEMLRQKQQEAEKLEADIREEKASWKIQIDYDKTNVSADFEQLREILDWEESNELQNLEKEEEDILKSLTKSETEMVQQTQYMRELISELEHRLQGSMMDLLQGVDGIIKRIENMTLKKPKTFHKNQRRVFRAPDLKGMLDMFRELTDARRYWVDVTLAPNNISHAVIAEDKRQVSSRNPQIMYGARGTLFTFQTFVNFNYCTGVLGSQSITSGKHYWEVDVSKKSAWILGVCAGFQSDAMYNIEQNENYQPKYGYWVIGLQEGVKYSVFQDGSSHTPFAPFIVPLSVIICPDRVGVFVDYEACTVSFFNITNHGFLIYKFSQCSFSKPVFPYLNPRKCTVPMTLCSPSS [rhesus TRIM5α, 332-344 = GARGTLFTFQTFV]”, the enrichment was determined as 1.82 ± 0.95. With “MASGILLNVKEEVTCPICLELLTEPLSLHCGHSFCQACITANHKKSMLYKEGERSCPVCRISYQPENIQPNRHVANIVEKLREVKLSPEEGQKVDHCARHGEKLLLFCQEDSKVICWLCERSQEHRGHHTFLMEEVAQEYHVKLQTALEMLRQKQQEAEKLEADIREEKASWKIQIDYDKTNVSADFEQLREILDWEESNELQNLEKEEEDILKSLTKSETEMVQQTQYMRELISELEHRLQGSMMDLLQGVDGIIKRIENMTLKKPKTFHKNQRRVFRAPDLKGMLDMFRELTDARRYWVDVTLAPNNISHAVIAEDKRQVSSRNPQIMYGARGTLFTFQTLTNFNYCTGVLGSQSITSGKHYWEVDVSKKSAWILGVCAGFQSDAMYNIEQNENYQPKYGYWVIGLQEGVKYSVFQDGSSHTPFAPFIVPLSVIICPDRVGVFVDYEACTVSFFNITNHGFLIYKFSQCSFSKPVFPYLNPRKCTVPMTLCSPSS [rhesus TRIM5α, 332-344 = GARGTLFTFQTLT]”, the enrichment came out at 1.15 ± 0.49. For the sequence “MASGILLNVKEEVTCPICLELLTEPLSLHCGHSFCQACITANHKKSMLYKEGERSCPVCRISYQPENIQPNRHVANIVEKLREVKLSPEEGQKVDHCARHGEKLLLFCQEDSKVICWLCERSQEHRGHHTFLMEEVAQEYHVKLQTALEMLRQKQQEAEKLEADIREEKASWKIQIDYDKTNVSADFEQLREILDWEESNELQNLEKEEEDILKSLTKSETEMVQQTQYMRELISELEHRLQGSMMDLLQGVDGIIKRIENMTLKKPKTFHKNQRRVFRAPDLKGMLDMFRELTDARRYWVDVTLAPNNISHAVIAEDKRQVSSRNPQIMYGARGTLFTFQTLVNFNYCTGVLGSQSITSGKHYWEVDVSKKSAWILGVCAGFQSDAMYNIEQNENYQPKYGYWVIGLQEGVKYSVFQDGSSHTPFAPFIVPLSVIICPDRVGVFVDYEACTVSFFNITNHGFLIYKFSQCSFSKPVFPYLNPRKCTVPMTLCSPSS [rhesus TRIM5α, 332-344 = GARGTLFTFQTLV]”, the enrichment amounted to 1.27 ± 0.76. Next, “MASGILLNVKEEVTCPICLELLTEPLSLHCGHSFCQACITANHKKSMLYKEGERSCPVCRISYQPENIQPNRHVANIVEKLREVKLSPEEGQKVDHCARHGEKLLLFCQEDSKVICWLCERSQEHRGHHTFLMEEVAQEYHVKLQTALEMLRQKQQEAEKLEADIREEKASWKIQIDYDKTNVSADFEQLREILDWEESNELQNLEKEEEDILKSLTKSETEMVQQTQYMRELISELEHRLQGSMMDLLQGVDGIIKRIENMTLKKPKTFHKNQRRVFRAPDLKGMLDMFRELTDARRYWVDVTLAPNNISHAVIAEDKRQVSSRNPQIMYGARGTLYPTFTNFNYCTGVLGSQSITSGKHYWEVDVSKKSAWILGVCAGFQSDAMYNIEQNENYQPKYGYWVIGLQEGVKYSVFQDGSSHTPFAPFIVPLSVIICPDRVGVFVDYEACTVSFFNITNHGFLIYKFSQCSFSKPVFPYLNPRKCTVPMTLCSPSS [rhesus TRIM5α, 332-344 = GARGTLYPTFT]”: 0.835 ± 1.2; “MASGILLNVKEEVTCPICLELLTEPLSLHCGHSFCQACITANHKKSMLYKEGERSCPVCRISYQPENIQPNRHVANIVEKLREVKLSPEEGQKVDHCARHGEKLLLFCQEDSKVICWLCERSQEHRGHHTFLMEEVAQEYHVKLQTALEMLRQKQQEAEKLEADIREEKASWKIQIDYDKTNVSADFEQLREILDWEESNELQNLEKEEEDILKSLTKSETEMVQQTQYMRELISELEHRLQGSMMDLLQGVDGIIKRIENMTLKKPKTFHKNQRRVFRAPDLKGMLDMFRELTDARRYWVDVTLAPNNISHAVIAEDKRQVSSRNPQIMYGARGTLYQSLTNFNYCTGVLGSQSITSGKHYWEVDVSKKSAWILGVCAGFQSDAMYNIEQNENYQPKYGYWVIGLQEGVKYSVFQDGSSHTPFAPFIVPLSVIICPDRVGVFVDYEACTVSFFNITNHGFLIYKFSQCSFSKPVFPYLNPRKCTVPMTLCSPSS [rhesus TRIM5α, 332-344 = GARGTLYQSLT]”: 0.563 ± 0.18; “MASGILLNVKEEVTCPICLELLTEPLSLHCGHSFCQACITANHKKSMLYKEGERSCPVCRISYQPENIQPNRHVANIVEKLREVKLSPEEGQKVDHCARHGEKLLLFCQEDSKVICWLCERSQEHRGHHTFLMEEVAQEYHVKLQTALEMLRQKQQEAEKLEADIREEKASWKIQIDYDKTNVSADFEQLREILDWEESNELQNLEKEEEDILKSLTKSETEMVQQTQYMRELISELEHRLQGSMMDLLQGVDGIIKRIENMTLKKPKTFHKNQRRVFRAPDLKGMLDMFRELTDARRYWVDVTLAPNNISHAVIAEDKRQVSSRNPQIMYGARGTLYTFPSFTNFNYCTGVLGSQSITSGKHYWEVDVSKKSAWILGVCAGFQSDAMYNIEQNENYQPKYGYWVIGLQEGVKYSVFQDGSSHTPFAPFIVPLSVIICPDRVGVFVDYEACTVSFFNITNHGFLIYKFSQCSFSKPVFPYLNPRKCTVPMTLCSPSS [rhesus TRIM5α, 332-344 = GARGTLYTFPSFT]”: 0.97 ± 0.48. With “MASGILLNVKEEVTCPICLELLTEPLSLHCGHSFCQACITANHKKSMLYKEGERSCPVCRISYQPENIQPNRHVANIVEKLREVKLSPEEGQKVDHCARHGEKLLLFCQEDSKVICWLCERSQEHRGHHTFLMEEVAQEYHVKLQTALEMLRQKQQEAEKLEADIREEKASWKIQIDYDKTNVSADFEQLREILDWEESNELQNLEKEEEDILKSLTKSETEMVQQTQYMRELISELEHRLQGSMMDLLQGVDGIIKRIENMTLKKPKTFHKNQRRVFRAPDLKGMLDMFRELTDARRYWVDVTLAPNNISHAVIAEDKRQVSSRNPQIMYGARGTLYTFPSFVNFNYCTGVLGSQSITSGKHYWEVDVSKKSAWILGVCAGFQSDAMYNIEQNENYQPKYGYWVIGLQEGVKYSVFQDGSSHTPFAPFIVPLSVIICPDRVGVFVDYEACTVSFFNITNHGFLIYKFSQCSFSKPVFPYLNPRKCTVPMTLCSPSS [rhesus TRIM5α, 332-344 = GARGTLYTFPSFV]” the figure was 1.21 ± 0.16; with “MASGILLNVKEEVTCPICLELLTEPLSLHCGHSFCQACITANHKKSMLYKEGERSCPVCRISYQPENIQPNRHVANIVEKLREVKLSPEEGQKVDHCARHGEKLLLFCQEDSKVICWLCERSQEHRGHHTFLMEEVAQEYHVKLQTALEMLRQKQQEAEKLEADIREEKASWKIQIDYDKTNVSADFEQLREILDWEESNELQNLEKEEEDILKSLTKSETEMVQQTQYMRELISELEHRLQGSMMDLLQGVDGIIKRIENMTLKKPKTFHKNQRRVFRAPDLKGMLDMFRELTDARRYWVDVTLAPNNISHAVIAEDKRQVSSRNPQIMYGARGTLYTFPSLTNFNYCTGVLGSQSITSGKHYWEVDVSKKSAWILGVCAGFQSDAMYNIEQNENYQPKYGYWVIGLQEGVKYSVFQDGSSHTPFAPFIVPLSVIICPDRVGVFVDYEACTVSFFNITNHGFLIYKFSQCSFSKPVFPYLNPRKCTVPMTLCSPSS [rhesus TRIM5α, 332-344 = GARGTLYTFPSLT]”, 1.18 ± 0.26.
